In patent EP1381627B1, “POLYPEPTIDES DERIVED FROM AMYLOID PRECURSOR PEPTIDE (APP) AND THEIR USES” (THE OPEN UNIVERSITY, priority 2001, dated 2010):
Entries after “also recorded” stand apart in the source; their conditions may differ. At least one peptide structure holds a part that was inferred or is arguable (an end, a ring closure or a residue). Where a SMILES comes first, the peptide text is derived from it. Where no end group is shown, it is not given here.

Assays:
chicks [1] = experiment: One-trial passive avoidance task, weak training (memory enhancement); assay type: in vivo, chick; conditions: for effect of different doses on weak training (percent avoidance): 30 mins beforehand, RER 0.2, 1.0, 2.0 µg/hemisphere, Ac-RER 4.0, 6.0 µg/hemisphere
chicks [2] = experiment: One-trial passive avoidance task, strong training, β-amyloid 12-28 induced amnesia; assay type: in vivo, chick
chicks [3] = experiment: One-trial passive avoidance task, strong training, APP-antisense induced amnesia; assay type: in vivo, chick; conditions: AS oligodeoxynucleotide 12 hours pretraining, peptide 30 minutes pretraining
chicks [4] = conditions: injection 30 min before training, day-old chicks; Mileusnic et al. 2000 abstract; cited from earlier work
[5] = 2 µg/hemisphere 20 mins prior to training, after β-amyloid 12-28 2 µg/hemisphere 30 mins prior to training, Figure 10
[6] = peptide 30 minutes pretraining, tested 24 hours posttraining, Figures 7, 8, 9

CC(=O)N[C@@H](CCCNC(=N)N)C(=O)N[C@@H](CCC(=O)O)C(=O)N[C@@H](CCCNC(=N)N)C(=O)O [Ac-RER] (Ac-Arg-Glu-Arg-OH)
effect on weak training (percent avoidance) (chicks [1]; 2 µg/hemisphere 30 or 60 mins beforehand, Figure 11): has the effect of improving the memory of weakly trained chicks | effect on weak training (percent avoidance) (chicks [1]; 2 µg/hemisphere 60 mins beforehand, compared with 30 mins, Figure 11): still significant, although less than 30 minutes after administration | effect of different doses on weak training (percent avoidance) (chicks [1]; Figure 12): have the effect of improving the memory of weakly-trained chicks | dose required for a comparable effect (chicks [1]; Ac-RER compared with RER, Figure 12): higher doses of Ac-RER than of RER are required to obtain a comparable effect | effect on β-amyloid 12-28 induced amnesia (percent avoidance) (chicks [2]; [5]): have the effect of restoring memory; also recorded: less than that of RER | effect on β-amyloid 12-28 induced amnesia (percent avoidance) (chicks [2]; 4 µg/hemisphere, given before, after or together with β-amyloid 12-28 2 µg/hemisphere, Figure 13): has the effect of restoring memory

N=C(N)NCCC[C@H](NC(=O)[C@H](CCC(=O)O)NC(=O)[C@@H](N)CCCNC(=N)N)C(=O)O [RER, Arg-Glu-Arg] (H-Arg-Glu-Arg-OH)
effect of different doses on weak training (percent avoidance) (chicks [1]; Figure 12): have the effect of improving the memory of weakly-trained chicks | effect on weak training (percent avoidance) (chicks [1]; [6]): enhances memory at 24 hours | effect on β-amyloid 12-28 induced amnesia (percent avoidance) (chicks [2]; [5]): have the effect of restoring memory

AKERLEAKHRERMSQVM [APP 319-335, Ala-Lys-Glu-Arg-Leu-Glu-Ala-Lys-His-Arg-Glu-Arg-Met-Ser-Gln-Val-Met]
effect on weak training (percent avoidance) (chicks [1]; [6]): enhance memory at 24 hours | effect on APP-antisense induced amnesia (percent avoidance) (chicks [3]; tested 30 minutes posttraining, Figure 6): can prevent antisense induced memory loss

RERMS [RERMS, Arg-Glu-Arg-Met-Ser]
effect on weak training (percent avoidance) (chicks [1]; [6]): enhance memory at 24 hours | effect on β-amyloid 12-28 induced amnesia (percent avoidance) (chicks [2]; β-amyloid 12-28 30 minutes pretraining, peptide 20 minutes pretraining, tested 24 hours posttraining, Figure 3): memory retention is restored | effect on APP-antisense induced amnesia (percent avoidance) (chicks [3]; strong task, Figure 5): avoided to a substantial extent | effect on APP antisense - induced amnesia (chicks [4]): reverses the APP antisense - induced amnesia

RSAER [RSAER, Arg-Ser-Ala-Glu-Arg]
effect on APP-antisense induced amnesia (percent avoidance) (chicks [3]; strong task, Figure 5): absent

SMRER [SMRER, Ser-Met-Arg-Glu-Arg]
effect on APP antisense - induced amnesia (chicks [4]): reverses the APP antisense - induced amnesia
